Some of the results follow. Repeats are few or missing, and single values can be far off.
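Further: cells treated in 1,536-well plates, then fixed and DAPI-stained, with nuclei counted from automated high-throughput microscope images.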

The test system of the test is IPC-298. Kind of test: cell count relative to DMSO control; melanoma cells; higher = more viable cells. As to conditions: library dose: standard library concentration; 72 h.
Regarding `Cc1cc(Nc2cc(N3CCN(C)CC3)nc(Sc3ccc(NC(=O)C4CC4)cc3)n2)n[nH]1` [Tozasertib] + Cc1cn(-c2cc(NC(=O)c3ccc(C)c(Nc4nccc(-c5cccnc5)n4)c3)cc(C(F)(F)F)c2)cn1 [nilotinib] (first compound 0.03 µM, partner dose 1 µM), the cell count turned out to be 95.3%.

For the molecule `Cc1cc(Nc2cc(N3CCN(C)CC3)nc(Sc3ccc(NC(=O)C4CC4)cc3)n2)n[nH]1` [Tozasertib] + O=C(O)C(=O)Nc1sc2c(c1C(=O)O)CCNC2 [TCS401] (first compound 0.03 µM, partner dose 8.33333 µM), the cell count was 102%.

`Cc1cc(Nc2cc(N3CCN(C)CC3)nc(Sc3ccc(NC(=O)C4CC4)cc3)n2)n[nH]1` [Tozasertib] + O=S(=O)(c1ccccc1)N(CC(F)(F)F)c1ccc(C(O)(C(F)(F)F)C(F)(F)F)cc1 [T0901317] (first compound 0.03 µM, partner dose 7 µM) had a cell count of 73.6%.

Turning to `CC[C@]1(O)C[C@H]2CN(CCc3c([nH]c4ccccc34)[C@@](C(=O)OC)(c3cc4c(cc3OC)N(C=O)[C@H]3[C@@](O)(C(=O)OC)[C@H](OC(C)=O)[C@]5(CC)C=CCN6CC[C@]43[C@@H]65)C2)C1` [vincristine] + O=C(/C=C/c1cccnc1)NCCCCC1CCN(C(=O)c2ccccc2)CC1 [FK866] (first compound 0.0005 µM, partner dose 0.05 µM), the cell count stood at 30.7%. As for `Cc1cc(Nc2cc(N3CCN(C)CC3)nc(Sc3ccc(NC(=O)C4CC4)cc3)n2)n[nH]1` [Tozasertib] + OCCn1cc(-c2cnc3nnn(Cc4ccc5ncccc5c4)c3n2)cn1 [PF04217903] (first compound 0.03 µM, partner dose 5 µM), the figure is 85.3%; as for `CC[C@]1(O)C[C@H]2CN(CCc3c([nH]c4ccccc34)[C@@](C(=O)OC)(c3cc4c(cc3OC)N(C=O)[C@H]3[C@@](O)(C(=O)OC)[C@H](OC(C)=O)[C@]5(CC)C=CCN6CC[C@]43[C@@H]65)C2)C1` [vincristine] + C[C@@H]1CCN(C(=O)CC#N)C[C@@H]1N(C)c1ncnc2[nH]ccc12 [CP690550] (first compound 0.0005 µM, partner dose 5 µM), 108%; as for `Cc1cc(Nc2cc(N3CCN(C)CC3)nc(Sc3ccc(NC(=O)C4CC4)cc3)n2)n[nH]1` [Tozasertib] + CCCCCCCCCCCCCCCCCCOP(=O)([O-])OC1CC[N+](C)(C)CC1 [Perifosine] (first compound 0.03 µM, partner dose 2 µM), 90.6%.

The molecule `CC[C@]1(O)C[C@H]2CN(CCc3c([nH]c4ccccc34)[C@@](C(=O)OC)(c3cc4c(cc3OC)N(C=O)[C@H]3[C@@](O)(C(=O)OC)[C@H](OC(C)=O)[C@]5(CC)C=CCN6CC[C@]43[C@@H]65)C2)C1` [vincristine] + CCCS(=O)(=O)Nc1ccc(F)c(C(=O)c2c[nH]c3ncc(Cl)cc23)c1F [PLX4720] (first compound 0.0005 µM, partner dose 0.4 µM) registered a cell count of 69.6%. The same measure for `Cc1cc(Nc2cc(N3CCN(C)CC3)nc(Sc3ccc(NC(=O)C4CC4)cc3)n2)n[nH]1` [Tozasertib] + Cc1nc(Nc2ncc(C(=O)Nc3c(C)cccc3Cl)s2)cc(N2CCN(CCO)CC2)n1 [dasatanib] (first compound 0.03 µM, partner dose 0.02 µM): 65.1%; for `CC[C@]1(O)C[C@H]2CN(CCc3c([nH]c4ccccc34)[C@@](C(=O)OC)(c3cc4c(cc3OC)N(C=O)[C@H]3[C@@](O)(C(=O)OC)[C@H](OC(C)=O)[C@]5(CC)C=CCN6CC[C@]43[C@@H]65)C2)C1` [vincristine] + COc1ccc2c(c1)CCC1C2CCC2(C)C(NCCCCCCN3C(=O)C=CC3=O)CCC12 [U73122] (first compound 0.0005 µM, partner dose 2 µM): 87.3%; for `Cc1cc(Nc2cc(N3CCN(C)CC3)nc(Sc3ccc(NC(=O)C4CC4)cc3)n2)n[nH]1` [Tozasertib] + N#Cc1c(O)c2c(-c3ccc(-c4ccccc4O)cc3)csc2[nH]c1=O [A769662] (first compound 0.03 µM, partner dose 10 µM): 103%.

In turn, `Cc1cc(Nc2cc(N3CCN(C)CC3)nc(Sc3ccc(NC(=O)C4CC4)cc3)n2)n[nH]1` [Tozasertib] + Cn1cncc1[C@@](N)(c1ccc(Cl)cc1)c1ccc2c(c1)c(-c1cccc(Cl)c1)cc(=O)n2C [tipifarnib] (first compound 0.03 µM, partner dose 0.05 µM) displayed a cell count of 117%.
